Test results taken from PubChem BioAssay AID1645887 (National Center for Advancing Translational Sciences (NCATS), 2021).
“And” between values parts separate entries of the source, which are not always exact repeats. Equal entries are not always repeated. Hit rate of the full screen: of about 16,000 compounds, about 40 (0.2%) were called active. Not shown: some 1% with an inconclusive outcome. Calls come from the whole dose curve; as a rule, active = well fitted activation curve with a large enough effect; inconclusive = small, poorly fitted or top-dose-only effect, or another doubt; inactive = no such curve, though single readings can be large or run the other way. Some of the results follow. Non-standard residues stand in square brackets, D forms with d. Residues, ends and D or L forms follow the SMILES beside them.

Molecular target: Rap guanine nucleotide exchange factor 4 (Homo sapiens) (UniProt Q8WZA2)
Assay: Validation qHTS for agonist of cAMP-regulated guanine nucleotide exchange factor 4 (EPAC2);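 note: exchange makes BODIPY-GDP fluorescence drop when released from Rap1B; series mostly up to about 150 µM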
Settings: EPAC2 Rap1B BODIPY-GDP exchange, fluorescence; activation: hits give high values
Outline: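 Signal normalized against 6.5 mM cAMP as agonist control. Mix of EPAC2 (100 nM), RAP1B-BODIPY-GDP (250 nM) and GDP (50 uM) was read kinetically at 480/540 nm, every 5 min over 30 min, after 5 min room-temperature incubation with compound.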
% is set by controls: 0 for no effect and ±100 for the full control effect.

Sequence of UniProt Q8WZA2 (Q8WZA2 whole entry, looked up): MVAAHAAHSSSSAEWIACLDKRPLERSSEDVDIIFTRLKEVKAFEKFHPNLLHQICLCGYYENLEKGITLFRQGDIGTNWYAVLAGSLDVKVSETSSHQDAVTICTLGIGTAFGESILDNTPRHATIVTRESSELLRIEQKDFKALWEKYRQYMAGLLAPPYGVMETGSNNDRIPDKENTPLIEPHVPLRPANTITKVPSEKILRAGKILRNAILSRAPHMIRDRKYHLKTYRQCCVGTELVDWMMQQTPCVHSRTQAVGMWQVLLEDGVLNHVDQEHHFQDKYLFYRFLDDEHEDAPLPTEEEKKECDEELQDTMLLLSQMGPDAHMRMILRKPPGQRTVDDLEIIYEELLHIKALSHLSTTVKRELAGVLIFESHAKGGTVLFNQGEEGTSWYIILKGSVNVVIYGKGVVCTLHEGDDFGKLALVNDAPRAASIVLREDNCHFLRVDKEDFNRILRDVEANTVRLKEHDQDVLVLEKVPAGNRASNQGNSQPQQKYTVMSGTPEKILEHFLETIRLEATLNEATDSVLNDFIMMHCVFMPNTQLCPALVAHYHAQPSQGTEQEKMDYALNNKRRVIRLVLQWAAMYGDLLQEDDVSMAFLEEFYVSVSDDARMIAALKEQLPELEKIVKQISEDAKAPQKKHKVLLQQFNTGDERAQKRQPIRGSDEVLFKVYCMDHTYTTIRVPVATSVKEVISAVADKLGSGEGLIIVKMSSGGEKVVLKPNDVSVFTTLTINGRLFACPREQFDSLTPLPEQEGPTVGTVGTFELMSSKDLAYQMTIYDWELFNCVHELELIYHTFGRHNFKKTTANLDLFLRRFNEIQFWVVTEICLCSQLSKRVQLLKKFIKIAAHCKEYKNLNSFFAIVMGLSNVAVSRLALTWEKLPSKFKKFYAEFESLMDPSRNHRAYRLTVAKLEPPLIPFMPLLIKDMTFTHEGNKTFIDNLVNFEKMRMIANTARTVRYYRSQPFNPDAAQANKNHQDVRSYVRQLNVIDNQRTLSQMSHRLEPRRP

activation, inactive:
COc1ccc(CNc2ncnc3ccc(-c4ccoc4)cc23)c(OC)c1 -11.2%
COc1ccccc1N1CCN(c2nc(CNC(=O)c3ccc(C)c(C)c3)nc3ccccc23)CC1 9.3%
CS(C)(=O)=O -9.51%
CC(=O)SCC(CC(=O)c1ccc(C)cc1)C(=O)O (stereo not drawn) 9.21%
N#Cc1cccc(NC(=O)N2CCCC3(CCN(C(=O)c4cnccn4)CC3)C2)c1 -11.2%
CCNc1ncc2nc(C)c(=O)n(C)c2n1 -14.1%
COCc1ccc(CN2CCOc3c(cc(-c4ccc(SC)cc4)cc3OC)C2)o1 0.901%
O=C(O)C(Oc1ccc2ccc(=O)oc2c1)c1ccccc1 (stereo not drawn) -5.81%
NCCCCC(N)C(=O)NC(Cc1ccc(O)cc1)C(=O)NC(CCCCN)C(=O)O (stereo not drawn) (H-Lys-Tyr-Lys-OH; configuration not given here) -16.2%
Fc1ccc(Nc2nc(-c3cccnc3)nc3ccccc23)cc1 -22.8%
O=C(NC[C@H](O)c1ccccc1)c1ccccc1 -6.42%
C#C[C@]1(O)CC[C@H]2[C@@H]3CCC4=Cc5oncc5C[C@]4(C)[C@H]3CC[C@@]21C -2.24%
CC(=O)Nc1cc(C(=O)N2CCN(c3ccccc3)CC2C)cc2ncn(CCc3ccccn3)c12 (stereo not drawn) -15.4%
COc1ccccc1CNc1ncnc2sc(C(=O)N(C)C(C)C)c(C)c12 -16.4%
O=Cc1ccc(N2CCOCC2)cc1 -6.63%
Cn1cccc1C(=O)N1CCC2(CCCN(Cc3ccccc3)C2)CC1 -10.3%
CCOc1ccc(Cc2nccc3cc(OCC)c(OCC)cc23)cc1OCC -7.05% and 8.86%
O=C(Nc1ccc([N+](=O)[O-])cc1Cl)c1cc(Cl)ccc1O -1.8% and -18.2% and -44.2%
CC(C)NC(=O)N1CC2(CCN(C(=O)c3ccco3)CC2)C1 4.69%
CC(=O)c1ccccc1-c1ccc2c(c1)CC(CNC(=O)c1ccnc(Cl)c1)O2 (stereo not drawn) -11.5%
Cc1ccccc1-c1nc(N2CCOCC2)c2ccccc2n1 -7.21%
COc1ccc(-c2nc3cnc(N4CCN(C)CC4)nc3n(Cc3ccc(F)cc3)c2=O)cc1 -10.3%
Cc1cnc(CNc2ccnc(-c3cccc(NS(C)(=O)=O)c3)n2)cn1 -6%
COc1ccc(CCN(C)CCCOc2ccc(S(=O)(=O)c3[nH]c4ccccc4c3C(C)C)cc2)cc1OC -20.8%
COc1cccc(Cn2c(=O)c(-c3cccc(C#N)c3)nc3cnc(Nc4ccccc4)nc32)c1 29%
CC(C)=CCc1c(O)cc2oc(C)cc(=O)c2c1O -8.82%
C=CS(=O)(=O)N(Cc1ccccc1Br)[C@H](CO)Cc1ccccc1 -28.9%
O=C(Nc1ccccc1)N1CCC2(CC1)CCN(C(=O)c1cnccn1)CC2 -10%
COc1cccc(-c2cc(NCc3cccc(C)c3)ncn2)c1 4.48%
CCCOC(=O)C1=C(C)CS[C@@H]2[C@H](NC(=O)COc3ccccc3)C(=O)N12 -9.76%
COc1ccc2ccccc2c1CN1CCc2nnc(CNC(=O)c3cccc(F)c3)n2CC1 -6.81%
N[C@@H](Cc1cc(I)c(O)c(I)c1)C(=O)O -7.95%
CC(=O)N1CCC[C@@]2(CCN(c3ncccn3)C2)C1 -5.64%
O=C(Nc1ccc(S(=O)(=O)N2CCOCC2)cc1)c1cc(Cl)ccc1NS(=O)(=O)c1ccc(Cl)s1 -15%
CC12CC3CC(C)(C1)CC(N)(C3)C2 13.3% and -9.19% and -40.6%
OCCO[C@@H]1[C@@H](O)[C@H](O)[C@@H](CO)O[C@@H]1O -14.4%
CSCC[C@H](C=O)NC(=O)[C@H](CC(C)C)NC(=O)[C@H](CC(C)C)NC(C)=O (Ac-Leu-Leu-[dM]-aldehyde) -15.8%
COc1cc(-c2c(OC)cccc2OC)cc2c1OCCN(C(=O)CCn1nc(C)cc1C)C2 -16.4%
CCCCCCCC[N+](C)(C)CCCCCCCC -22% and -6.82%
Cc1c(C(=O)N2CCN(C(C)C)CC2)sc2ncnc(NCc3ccco3)c12 2.1%
COc1ccc(C(=O)N2CCC3(CC2)CCN(c2ccncc2)CC3)cc1 -15.3%
CS(=O)(=O)OCCCNCCCOS(C)(=O)=O -17.3%
COC(=O)N1CCC2(CCN(Cc3ccccc3OC)CC2)CC1 -5%
O=C(c1ccc(F)c(F)c1)N1CCOc2ccc(CN3CCN(Cc4ccccn4)CC3)cc2C1 -0.854%
O=C(NCCc1ccccc1)[C@@H]1CC=C[C@@H]2CCN(Cc3ccccc3)C(=O)[C@@H]21 -13.8%
CC/C=C\C/C=C\C/C=C\C/C=C\C/C=C\C/C=C\CCC(=O)O 9.44% and -2.86% and 0.0557%
CSCCC(N)C(=O)NC(CC(C)C)C(=O)NC(Cc1ccccc1)C(=O)O (stereo not drawn) -5.88%
COc1ccc(-c2cc3ccccc3c(=O)o2)cc1 -37.6%
O=C(O)CCCCCCCCc1cn(CC2CCCCC2)nn1 1.29%
C[C@]12CCC(=O)C=C1CCC1C2C(O)C[C@]2(C)C1CC[C@]2(O)C(=O)COC(=O)CCC(=O)O (stereo partly drawn) -1.56%
OC[C@H]1NC[C@@H](O)[C@@H](O)[C@H]1O 1.88%
CCCCC[C@H]1CN(Cc2ccc(OC)cc2)C(=O)[C@@H]1CC(=O)NCc1ccccc1 -26.5%
Nc1nc2c(nc(Br)n2C2OC(CO)C(O)C2O)c(=O)[nH]1 (stereo not drawn) 8.69%
O=C1CCN(CCc2ccccc2)CCN1[C@H](CSc1ccccc1)Cc1ccccc1 -18.1%
O=C(Oc1ccccc1)N1CCC2(CC1)CCN(c1ccccc1)CC2 6.13%
COCC(=O)N1CCC2(CCCN(Cc3nccs3)C2)CC1 -1.63%
Cc1ccc2nc(SCC(=O)NCC3Cc4cc(-c5ncccc5C)ccc4O3)[nH]c2c1 (stereo not drawn) -23.7%
CN1CCCN=C1/C=C/c1cccs1 0.422%
CC(=O)N1CCN(c2nc3cc(C)ccc3cc2CN(C(=O)c2cccc3ccccc23)C2CC2)CC1 -3.13%
C[C@@H](CSc1ccc(Br)cc1)CN1CC[C@H](NC(=O)OCc2ccccc2)CCC1=O -41%
CO[C@H]1C[C@@H]2CC[C@@H](C)[C@@](O)(O2)C(=O)C(=O)N2CCCC[C@H]2C(=O)O[C@H]([C@H](C)C[C@@H]2CC[C@@H](OC(=O)C(C)(CO)CO)[C@H](OC)C2)CC(=O)[C@H](C)/C=C(\C)[C@@H](O)[C@@H](OC)C(=O)[C@H](C)C[C@H](C)/C=C/C=C/C=C/1C -34.6%
COC(=O)c1cc(CNC(=O)c2cccc3ccccc23)cc(NC(=O)c2ccccc2OC)c1 4.35%
O=C(C[n+]1cccc2cccc(O)c21)c1ccc(Br)cc1 -11.2%
CCC[C@@H]1C[C@@H](C(=O)N[C@@H]([C@H]2O[C@H](SC)[C@H](O)[C@@H](O)[C@H]2O)[C@@H](C)O)N(C)C1 -8.27%
COc1ccc(CN2CCOc3ccc(CN4CCC(O)(c5cccnc5)CC4)cc3C2)c(C)c1C -5.48%
COc1ccc(C(=O)N2CCC3(CCCN(c4ccccn4)C3)CC2)cc1 0.0532%
COc1ccccc1CCNc1ncnc2sc(C(=O)N3CCCCC3)c(C)c12 -7.43%
C=C1C(N)CC2CC1C2(C)C (stereo not drawn) -6.88%
CCCCCCCC(=O)O[C@H](CC(=O)O)C[N+](C)(C)C -3.66%
COc1cccc(CN2CCOc3ccc(C(O)c4cccnc4)cc3C2)c1 (stereo not drawn) 3.28%
COCC(=O)N1CCC2(CCCN(Cc3ccccc3OC)C2)CC1 3.47%
O=c1cc[nH]c(=O)[nH]1 -8.19%
CCNc1ncc2nc(-c3cn(C)c4ccccc34)c(=O)n(C)c2n1 -3.91%
Cc1ccc2c(c1)CN(C(=O)CC(c1ccccc1)c1ccco1)CC(C)O2 (stereo not drawn) -18.6%
COc1ccc(CNc2nc(-c3c(C)noc3C)nc3ccccc23)c(OC)c1 19%
O=C(NCc1cccnc1)[C@@H]1CC=C[C@@H]2CCN(Cc3ccccc3)C(=O)[C@@H]21 -18.6%
COc1ccc(-c2cc(=O)c3c(OC)c(OC)c(OC)c(OC)c3o2)cc1OC 0.846%
CC(=O)O[C@]1(C(C)=O)CC[C@H]2[C@@H]3CCC4=CC(=O)CC[C@]4(C)[C@@]3(F)[C@@H](O)C[C@@]21C -22.4%
CN(CCO)C(=O)c1cn(C2CCCN(Cc3cc4ccccc4s3)C2)nn1 (stereo not drawn) -6.63%
Cc1cccc(CNc2cc(-c3ccccc3C)ncn2)c1 -23.7%
CC1(C)O[C@@H]2C[C@@H]3[C@H]4C[C@@H](F)C5=CC(=O)C=C[C@]5(C)[C@@]4(F)[C@@H](O)C[C@]3(C)[C@]2(C(=O)CO)O1 -12.6%
O=C(c1csnn1)N1CCC2(CC1)CCN(c1ncccn1)CC2 -6.28%
Cc1nc2cnc(OCc3ccccc3)nc2n(CCC#N)c1=O -17.2%
